Results reported in the supplement of paper PMC4967469.
A lower IC50 marks a more sensitive line; fits outside the tested doses are given as limits. AUC sums up the same curve from the lowest dose to the 256-fold higher top dose: 1 means no effect, lower means more sensitive. For some of these results: Any top dose called inferred was calculated from the reported fits.

How the values were obtained:
Assay in all cases: Viability of human cancer cell lines after 72 h of drug (GDSC screen)
SGC0946 = compound: CC(C)N(CCCNC(=O)Nc1ccc(C(C)(C)C)cc1)C[C@H]1O[C@@H](n2cc(Br)c3c(N)ncnc32)[C@H](O)[C@@H]1O [SGC0946]; settings: top dose 0.5 µM; top dose inferred
Protocol: (§1)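 Human cancer cell lines in 384-well plates, medium with 10% serum, drug for 72 h over a 256-fold dose range (nine 2-fold or five 4-fold steps up to the top dose). Adherent lines were fixed and stained with the nucleic acid dye Syto60, suspension lines read with resazurin; signal relative to control wells, capped at 0 and 100%. One two-parameter sigmoid per drug and line, fitted in a mixed model over all curves with the slope shared within a line.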

Bryostatin 1 = compound: CCC/C=C/C=C/C(=O)O[C@H]1/C(=C/C(=O)OC)C[C@H]2C[C@H]([C@@H](C)O)OC(=O)C[C@H](O)C[C@@H]3C[C@H](OC(C)=O)C(C)(C)[C@](O)(C[C@@H]4C/C(=C/C(=O)OC)C[C@H](/C=C/C(C)(C)[C@]1(O)O2)O4)O3 [Bryostatin 1]; settings: top dose 0.008 µM; top dose inferred
Protocol: as §1

GW-2580 = compound: COc1ccc(COc2ccc(Cc3cnc(N)nc3N)cc2OC)cc1 [GW-2580]; settings: top dose 20 µM; top dose inferred
Protocol: as §1

VX-680 = compound: Cc1cc(Nc2cc(N3CCN(C)CC3)nc(Sc3ccc(NC(=O)C4CC4)cc3)n2)n[nH]1 [VX-680]; settings: top dose 2 µM
Protocol: as §1

Lenalidomide = compound: Nc1cccc2c1CN(C1CCC(=O)NC1=O)C2=O [Lenalidomide]; settings: top dose 5 µM; top dose inferred
Protocol: as §1

Cell Line	AUC (SGC0946)	IC50 (SGC0946) [nM]	AUC (Bryostatin 1)	IC50 (Bryostatin 1) [nM]	AUC (GW-2580)	IC50 (GW-2580) [nM]	AUC (VX-680)	IC50 (VX-680) [nM]	AUC (Lenalidomide)	IC50 (Lenalidomide) [nM]
SK-N-FI (neuroblastoma, adherent)	0.987	> 500	0.988	> 8	0.982	> 20000	0.93	> 2000	0.983	> 5000
NB13 (neuroblastoma, adherent)	0.988	> 500	0.984	> 8	0.973	> 20000	0.616	250	0.984	> 5000
SJSA-1 (bone, adherent)	0.982	> 500	0.97	> 8	0.981	> 20000	0.915	> 2000	0.984	> 5000
P32-ISH (Burkitt lymphoma, suspension)	0.995	> 500	0.935	8	0.995	> 20000	0.282	36.3	0.953	> 5000
GOTO (neuroblastoma, adherent)	0.981	> 500	0.984	> 8	0.97	> 20000	0.935	> 2000	0.984	> 5000
EC-GI-10 (oesophagus, adherent)	0.987	> 500	0.988	> 8	0.981	> 20000	0.988	> 2000	0.988	> 5000
HT (B-cell lymphoma, suspension)	0.989	> 500	0.986	> 8	0.987	> 20000	0.988	> 2000	0.989	> 5000
EW-16 (Ewing sarcoma, adherent)	0.98	> 500	0.969	> 8	0.985	> 20000	0.448	89.4	0.937	> 5000
EW-11 (Ewing sarcoma, adherent)	0.943	> 500	0.955	> 8	0.981	> 20000	0.981	> 2000	0.96	> 5000
MS-1 (small cell lung carcinoma, suspension)	0.991	> 500	0.987	> 8	0.963	> 20000	0.988	> 2000	0.99	> 5000
COLO-684 (endometrium, suspension)	0.979	> 500	0.973	> 8	0.985	> 20000	0.875	> 2000	0.984	> 5000
MONO-MAC-6 (acute myeloid leukaemia, suspension)	0.98	> 500	0.957	> 8	0.955	> 20000	0.446	88.2	0.945	> 5000
NCI-SNU-5 (stomach, suspension)	0.988	> 500	0.989	> 8	0.989	> 20000	0.976	> 2000	0.978	> 5000
K5 (thyroid, adherent)	0.985	> 500	0.98	> 8	0.985	> 20000	0.813	1020	0.981	> 5000
AM-38 (glioma, semi-adherent)	0.985	> 500	0.986	> 8	0.987	> 20000	0.988	> 2000	0.981	> 5000
LU-139 (small cell lung carcinoma, suspension)	0.98	> 500	0.978	> 8	0.981	> 20000	0.833	1840	0.938	> 5000
EM-2 (chronic myeloid leukaemia, suspension)	0.979	> 500	0.973	> 8	0.982	> 20000	0.633	305	0.97	> 5000
GB-1 (glioma, adherent)	0.98	> 500	0.98	> 8	0.932	> 20000	0.833	1630	0.955	> 5000
MZ1-PC (pancreas, adherent)	0.977	> 500	0.977	> 8	0.678	4460	0.82	1530	0.979	> 5000
MFH-ino (soft tissue, adherent)	0.98	> 500	0.969	> 8	0.978	> 20000	0.141	< 7.81	0.962	> 5000

Cell Line	AUC (SGC0946)	IC50 (SGC0946) [nM]	AUC (Bryostatin 1)	IC50 (Bryostatin 1) [nM]	AUC (GW-2580)	IC50 (GW-2580) [nM]	AUC (VX-680)	IC50 (VX-680) [nM]	AUC (Lenalidomide)	IC50 (Lenalidomide) [nM]
KURAMOCHI (ovary, adherent)	0.981	> 500	0.979	> 8	0.984	> 20000	0.761	814	0.984	> 5000
HCC1187 (breast, suspension)	0.988	> 500	0.982	> 8	0.971	> 20000	0.8	910	0.986	> 5000
ALL-SIL (T-cell leukaemia, suspension)	0.988	> 500	0.989	> 8	0.989	> 20000	0.196	18.6	0.986	> 5000
JSC-1 (B-cell lymphoma, suspension)	0.975	> 500	0.986	> 8	0.943	> 20000	0.62	266	0.944	> 5000
MFM-223 (breast, adherent)	0.988	> 500	0.983	> 8	0.988	> 20000	0.988	> 2000	0.989	> 5000
WSU-NHL (lymphoid neoplasm, suspension)	0.99	> 500	0.982	> 8	0.99	> 20000	0.99	> 2000	0.973	> 5000
KGN (ovary, adherent)	0.977	> 500	0.978	> 8	0.98	> 20000	0.54	164	0.958	> 5000
EB-3 (Burkitt lymphoma, suspension)	0.975	> 500	0.982	> 8	0.973	> 20000	0.966	> 2000	0.984	> 5000
NCI-H345 (small cell lung carcinoma, suspension)	0.989	> 500	0.968	> 8	0.902	> 20000	0.956	> 2000	0.989	> 5000
BL-41 (Burkitt lymphoma, suspension)	0.987	> 500	0.975	> 8	0.994	> 20000	0.49	118	0.994	> 5000
SUP-M2 (anaplastic large cell lymphoma, suspension)	0.994	> 500	0.992	> 8	0.993	> 20000	0.351	53.7	0.992	> 5000
8-MG-BA (glioma, adherent)	0.979	> 500	0.986	> 8	0.978	> 20000	0.92	> 2000	0.983	> 5000
EW-13 (Ewing sarcoma, suspension)	0.984	> 500	0.922	> 8	0.963	> 20000	0.976	> 2000	0.98	> 5000
H9 (lymphoid neoplasm, suspension)	0.981	> 500	0.967	> 8	0.967	> 20000	0.412	75.3	0.992	> 5000
A253 (head and neck, adherent)	0.988	> 500	0.89	> 8	0.986	> 20000	0.97	> 2000	0.989	> 5000
DJM-1 (skin, adherent)	0.987	> 500	0.987	> 8	0.988	> 20000	0.88	> 2000	0.968	> 5000
LB373-MEL-D (melanoma, adherent)	0.989	> 500	0.976	> 8	0.99	> 20000	0.95	> 2000	0.99	> 5000
BE-13 (lymphoblastic leukaemia, suspension)	0.986	> 500	0.975	> 8	0.975	> 20000	0.372	56.7	0.982	> 5000
NCI-H82 (small cell lung carcinoma, suspension)	0.986	> 500	0.989	> 8	0.989	> 20000	0.854	1450	0.978	> 5000
KCL-22 (chronic myeloid leukaemia, suspension)	0.99	> 500	0.982	> 8	0.991	> 20000	0.631	269	0.991	> 5000
